According to PubChem BioAssay AID1030 (National Center for Advancing Translational Sciences (NCATS), 2008):
Screen size: about 220,000 compounds; about 16,000 (7.3%) were called active. The shares of active, inactive and inconclusive entries below differ from those in the screen. The call rests on the fitted dose curve; in most records, active means well fitted inhibition curve with a large enough effect (not every such curve was filed as active); inconclusive means small, poorly fitted or top-dose-only effect, or another doubt; inactive means no such curve, though single readings can be large or run the other way. No potency is given beside an inconclusive call; the fits are too rough.

The compounds below were run against Aldehyde dehydrogenase 1A1 (Homo sapiens) (UniProt P00352) (assay: qHTS Assay for Inhibitors of Aldehyde Dehydrogenase 1 (ALDH1A1)). Conditions: Purified ALDH1A1, NADH fluorescence, propionaldehyde substrate; series mostly up to 75.3 µM; activity, negative = inhibition: at the top concentration.
Sequence of UniProt P00352 (P00352 whole entry, looked up): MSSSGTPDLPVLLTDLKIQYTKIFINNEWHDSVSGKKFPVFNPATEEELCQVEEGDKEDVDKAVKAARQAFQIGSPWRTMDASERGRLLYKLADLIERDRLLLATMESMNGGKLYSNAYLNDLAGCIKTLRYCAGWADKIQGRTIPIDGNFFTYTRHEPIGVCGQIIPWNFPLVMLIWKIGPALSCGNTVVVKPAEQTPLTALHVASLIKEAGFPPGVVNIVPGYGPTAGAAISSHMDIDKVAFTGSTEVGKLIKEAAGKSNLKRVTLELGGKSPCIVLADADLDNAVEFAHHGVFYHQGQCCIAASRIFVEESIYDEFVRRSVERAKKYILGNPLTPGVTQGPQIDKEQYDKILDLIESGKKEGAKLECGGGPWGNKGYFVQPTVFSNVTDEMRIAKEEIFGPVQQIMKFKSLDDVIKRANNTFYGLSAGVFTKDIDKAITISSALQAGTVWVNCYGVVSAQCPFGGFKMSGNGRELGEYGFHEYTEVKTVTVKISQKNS
Potency means the concentration at half of the fitted maximal effect; tags describe the fitted curve by direction and shape.
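Wherever activity, negative = inhibition is given: plate controls were no enzyme wells and a reference inhibitor.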

SMILES | Potency | activity, negative = inhibition
N[C@H](C(=O)O)[C@@H]1C[C@@H]1C(=O)O | inactive | –
Cc1c(CCC(C)C)c(=O)n2c([nH]c3ccccc32)c1C#N | inconclusive [inhibitor, partial curve] | –
O=C(CO/N=C/c1ccccc1OC(F)F)N1CCc2ccccc21 | active: 15.8 µM | –
CCN(CC)c1ccc(Nc2nc(N3CCOCC3)c3ccccc3n2)cc1 | inconclusive [inhibitor, partial curve] | –
CCOc1ccc(-c2cc(C(=O)N/N=C/c3ccc(O)c(OC)c3)[nH]n2)cc1 | inconclusive [inhibitor, single point] | –
COc1ccc(N2CCN(S(=O)(=O)c3ccc(-n4cnnn4)c(C)c3)CC2)cc1 | inconclusive [inhibitor, full curve] | –
CC1(C)C(=O)NCCN1C(=O)CSc1nccc(-c2ccc(Br)cc2)n1 | – | inactive: 15.3%
O=C(OC(C(=O)NCc1cccs1)c1ccccc1F)c1ccco1 (configuration not stated) | inconclusive [inhibitor, single point] | –
COc1ccc(-n2nnnc2SCc2nc3ccccc3s2)cc1 | inconclusive [inhibitor, partial curve] | –
COc1ccc(-c2cnc(N)n2CC2CCCO2)cc1 (configuration not stated) | active: 39.8 µM | –
O=S(=O)(NCCc1ccncc1)c1ccc(S(=O)(=O)N2CCCCCC2)cc1 | inconclusive [inhibitor, partial curve, poor fit] | –
C=CC[C@@H]1C=C[C@H](O/N=C(\C)CCN2CCCc3nc(C)c(C)cc32)[C@H](CO)O1 | inconclusive [inhibitor, partial curve] | –
CCn1c(C)nc2cc(C(=O)NNC(=S)NC(=O)c3ccccc3)ccc21 | active: 25.1 µM | –
COc1ccc(CCNC(=S)Nc2cccc(C)c2C)cc1 | inconclusive [inhibitor, partial curve] | –
CC(C)(C)NC(=O)CN(Cc1cccs1)C(=O)C1COc2ccccc2O1 (configuration not stated) | inconclusive [inhibitor, full curve] | –
COc1ccc(-c2cc(C(F)(F)F)nc(-n3ccnc3C)n2)cc1 | inconclusive [inhibitor, single point] | –
CCC(C)(C)n1nnnc1C(c1cc2ccc(OC)cc2[nH]c1=O)N1CCc2ccccc21 (configuration not stated) | inconclusive [inhibitor, partial curve] | –
CCCn1cc(S(=O)(=O)CC(=O)Nc2ccc(OCC)cc2)c2ccccc21 | inconclusive [inhibitor, single point] | –
COc1ccc(C(=O)N2CCC[C@@]3(CCN(CC(C)C)C3)C2)cc1 | – | inactive: -13.5%
CCN(CC)S(=O)(=O)c1ccc(-c2nnc(SCC(=O)N3c4ccccc4CC3C)n2CC)cc1 (configuration not stated) | inconclusive [inhibitor, single point] | –
CCOC(=O)C1=C(C)NC(SCC(N)=O)=C(C#N)C1c1cccs1 (configuration not stated) | inconclusive [inhibitor, single point] | –
CCc1cccc2c(/C=N/NC(=O)c3cccc(S(=O)(=O)Nc4ccccc4Cl)c3)c[nH]c12 | inconclusive [inhibitor, single point] | –
O=C(NC1CCCCCC1)c1ccc(=O)n(Cc2ccccc2)n1 | inconclusive [inhibitor, single point] | –
CCN(CC)c1ccc(/C=N/Nc2nc(C)cc(=O)[nH]2)cc1 | inconclusive [inhibitor, single point] | –

SMILES | Potency | activity, negative = inhibition
CCOc1cc2[nH]c(=O)n(CCCC(=O)NCc3ccco3)c(=O)c2cc1OCC | inconclusive [inhibitor, single point] | –
CC(=O)Nc1ccc(S(=O)(=O)NNC(=O)COc2ccc(C(C)(C)C)cc2)cc1 | – | inactive: 10.1%
CCOC(=O)c1c(NC(=O)C2=C(C)NC(=S)NC2c2ccc(CC)cc2)sc(C)c1C (configuration not stated) | active: 28.2 µM | –
NNc1nc2c(Cl)cccc2s1 | inconclusive [inhibitor, single point] | –
Cc1ccccc1OCCSc1nc2ncnc(N)c2[nH]1 | – | inactive: 3.68%
CCOc1ccc(NC(=O)Nc2nnc(CC)s2)cc1 | inconclusive [inhibitor, single point] | –
C=CCn1cnc2scc(-c3ccccc3)c2c1=O | – | inactive: 0.35%
CN(Cc1ccco1)c1ncncc1-c1cccc(NS(C)(=O)=O)c1 | inconclusive [inhibitor, single point] | –
O=C(CNc1ccccc1-c1ccccc1)NCc1ccccc1 | inconclusive [inhibitor, single point] | –
CCn1cc(CNc2nc3nonc3nc2N2CCCCC2)cn1 | – | inactive: -10.9%
COc1ccccc1NC(=S)NCCc1ccc(F)cc1 | – | inactive: -3.41%
Cn1ccc(-c2cc(C(=O)O)c3ccccc3n2)n1 | – | inactive: 4.68%
COc1ccc(-c2cc(-c3cccs3)c(C#N)c(SCC(=O)NCc3ccccc3OC)n2)cc1 | inconclusive [inhibitor, single point] | –
CC1CCCC(NC(=O)COC(=O)CCSc2ccccc2)C1C (configuration not stated) | – | inactive: -14.6%
COc1ccc(Cl)cc1-n1c(N)c(C(N)=O)sc1=S | inconclusive [inhibitor, single point] | –
COc1cccc(/C=N\n2c(C)nnc2C)c1OC | – | inactive: 1.74%
CCN1C(=O)/C(=C/C=C2/Sc3ccccc3N2CCO)SC1=S | inconclusive [inhibitor, partial curve, poor fit] | –
Cc1ccc(C(c2nnnn2C(C)(C)C)N(Cc2ccco2)Cc2cccs2)cc1 (configuration not stated) | – | inactive: -3.23%
S=c1nc[nH]c2c1[nH]c1ccccc12 | active: 14.1 µM | –
CCN1CCN(C(=S)NC(CC(=O)c2ccccc2)c2ccccc2)CC1 (configuration not stated) | – | inactive: -3.48%
COCCNC(=O)/C(C#N)=C/c1ccc(-c2ccc(OC)cc2[N+](=O)[O-])o1 | – | inactive: 9.91%
COc1cccc(/C=N/NC(=O)c2nc(-c3ccccc3)cc(-c3ccccc3)n2)c1O | inconclusive [inhibitor, single point] | –
CCCc1cc(=O)[nH]c(SCc2ccccc2)n1 | inconclusive [inhibitor, single point] | –
